# In PubChem BioAssay AID1508623 (National Center for Advancing Translational Sciences (NCATS), 2021):
# About 450 (0.94%) of roughly 48,000 compounds were called active. Not shown: some 19% with an inconclusive outcome. Calls follow the shape of the dose curve; as a rule, active = well fitted inhibition curve with a large enough effect; inconclusive = small, poorly fitted or top-dose-only effect; inactive = no such curve, though single readings can be large or run the other way. This is one part of the list.
# Assay: Primary qHTS for Identification of Small Molecule Inhibitors of Huntingtin Promoter Activity; also: nearly all actives have a fitted effect of over 50% in size
# Conditions: HEK293 HTT promoter firefly luciferase reporter (activity 0% = vehicle and -100% = no light), 24 h; series mostly up to 57.5 µM; activity change, negative = inhibition: at the top concentration
# Outline: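 Firefly luciferase readout (Dual-Glo, 10 min RT) after 24 h, 37 °C compound exposure (final up to 57.5 uM) of HEK293 reporter cells cultured 24 h beforehand; PTC124 at 50 uM final as control inhibitor; activity scaled vehicle 0%, zero RLU -100%.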
# Potency is read from the fitted curve at half-maximal effect.
Structure (SMILES),"activity change, negative = inhibition",Potency
CCN(CC)S(=O)(=O)c1ccc2c(c1)N(CC(=O)NCCCN1CCN(c3ccc(OC)cc3)CC1)C(=O)CO2,inactive: -8.71%,–
Cc1ccc2oc(C(=O)Nc3ccc(S(=O)(=O)N4CCCCC4C)cc3)cc(=O)c2c1 (stereo unspecified),inactive: -2.08%,–
CCCS(=O)(=O)N1CCC(n2c(C)nc3cccnc32)CC1,inactive: 50.8% [at 11.5 µM],–
CCN(C(=O)CSc1nc2ccccc2n1CC(=O)N(C)C1CCCCC1)c1ccccc1,inactive: -21.6%,–
CCOC(=O)c1cc(-c2ccccc2)n(CCC(=O)NCCc2ccccc2)c1C,inactive: -26.2%,–
CCc1ccc(C(=O)c2cn(CC(=O)Nc3cc(OC)ccc3OC)c3ccc(Cl)cc3c2=O)cc1,inactive: -10.5%,–
CC(=O)N1CCc2c(sc3c2c(=O)n(-c2ccccc2Cl)c(=O)n3Cc2cccc(C)c2)C1,inactive: -31.6%,–
COc1ccccc1NC(=O)CSc1cn(CC(=O)N2CCCC2)c2ccccc12,inactive: -4.2%,–
CC(=O)c1cccc(NC(=O)CCc2c(C)nc3nc(CN)nn3c2C)c1,inactive: -6.31%,–
CCC1CCCCN1C(=O)CSc1nnc(-c2ccc(OC)c(OC)c2)o1 (stereo unspecified),inactive: -17.6%,–
Cc1cc(-c2ccccc2)nnc1NCCN1CCOCC1,inactive: 3.84%,–
CCOC(=O)c1ccc(NC(=O)N2CC3CCCN3c3ccccc32)cc1 (stereo unspecified),inactive: -27%,–
O=C(Cn1cc(S(=O)(=O)N2CCCC2)c(S(=O)(=O)N2CCCC2)c1)Nc1ccc(F)cc1,inactive: -2.29%,–
Cc1ccc2nc(-c3cccs3)c(Nc3ccc4c(c3)OCCO4)n2c1,inactive: 26.8%,–
CCOc1ccc(NC(=O)c2ccc(F)c(S(=O)(=O)N(Cc3ccc(C(=O)OC)cc3)Cc3ccc(OC)c(OC)c3)c2)cc1,inactive: -26.1%,–
O=C(Cn1cc(C(=O)c2ccco2)c2ccccc21)Nc1ccccc1,inactive: -22.8%,–
CCOc1ccc(N2CC(C)Cn3c2nc2c3c(=O)n(Cc3c(F)cccc3Cl)c(=O)n2C)cc1 (stereo unspecified),inactive: -6.62%,–
CN(C)c1ncc(C(=O)NCc2ccc(Cl)cc2)cn1,inactive: -29.4%,–
COc1ccc(Cl)cc1Nc1ccc2cc(S(=O)(=O)N3CCCCC3)ccc2n1,inactive: -12.6%,–
O=C(CSc1ncc(-c2ccccc2)[nH]1)Nc1cccc(Br)c1,inactive: -11%,–
NC(N)=Nc1nc(CSCC/C(N)=N/S(N)(=O)=O)cs1,inactive: 3.95%,–

Structure (SMILES),"activity change, negative = inhibition",Potency
Cc1ccc(-c2nnn3c2nc(NC2CCC(C)CC2)c2ccccc23)cc1 (stereo unspecified),inactive: 2.17%,–
CCOCCc1nnc(NC(=O)C(=O)c2cc(C)n(-c3ccc(Cl)cc3)c2C)s1,inactive: -17.6%,–
COC(=O)CN1C(C(=O)c2ccccc2)=C(OC(=O)c2ccc(F)cc2)c2ccccc2S1(=O)=O,inactive: -6.73%,–
Cc1ccc(S(=O)(=O)c2cnc(SCC(=O)Nc3ccc4c(c3)OCCO4)[nH]c2=O)cc1C,inactive: -4.91%,–
COc1cccc(-n2c(C)nc3cc(C(=O)O)ccc32)c1,inactive: -4.52%,–
COc1cccc(-c2nc3c(C#N)c[nH]n3c2NC2CCCC2)c1OC,inactive: -19.5%,–
CC1CCCCN1C(=O)c1ccc2c(c1)N(Cc1ccc(F)cc1)C(=O)c1ccccc1S2(=O)=O (stereo unspecified),inactive: -18.1%,–
COc1ccc(OC)c(CNC(=O)c2cc3ccc4cccnc4c3[nH]2)c1,inactive: 3.91%,–
CC1CCN(S(=O)(=O)c2ccc3nc(NCc4ccc(F)cc4)ccc3c2)CC1,inactive: -25.1%,–
Cc1ccccc1Nc1c(-c2c[nH]c3ccccc23)nc2ccccn12,inactive: 20.9%,–
CCn1nnc2cc(C(=O)Nc3ccc(C)cc3Br)ccc21,inactive: 29.2%,–
O=C(Cn1nnc2sc(-c3ccccc3)cc2c1=O)Nc1cccc(C(F)(F)F)c1,inactive: -11.6%,–
CC(C)(C)OC(=O)N1CCC(c2nnc(SCc3ccccc3F)o2)CC1,inactive: -33.1%,–
O=c1c2oc3ccccc3c2n(Cc2ccccc2)c(=O)n1Cc1ccco1,inactive: -10.2%,–
COc1ccc(C)cc1NC(=O)C(=O)NCCc1csc2nc(-c3ccccc3F)nn12,inactive: -1.71%,–
CCc1ccccc1NC(=O)CN(c1ccc(OC)cc1)S(=O)(=O)c1c(C)n[nH]c1C,inactive: -29.9%,–
Cc1cccc(-c2nc3scc(CCNS(=O)(=O)c4ccc(F)cc4C)n3n2)c1,inactive: -21.8%,–
Cc1ccc(NC(=O)c2cc(S(=O)(=O)NCCC3=CCCCC3)ccc2F)cc1C,–,active: 28.2 µM
Cc1ccn2c(c1)nc(=O)c1cc(S(=O)(=O)N3CCCCC3)c(Cl)cc12,inactive: -4.24%,–
CCc1ccc(NC(=O)c2sc3nc(C)c(C(=O)Nc4ccc(C)cc4C)c(-c4ccco4)c3c2N)cc1,inactive: -26.5%,–
Cc1oc(-c2ccccc2)nc1CNC(=O)NC1CCCCC1,inactive: 0%,–

Structure (SMILES),"activity change, negative = inhibition",Potency
Cc1c(NC(=O)c2cc(-c3ccc(Br)cc3)on2)c(=O)n(-c2ccccc2)n1C,inactive: -20.9%,–
Cc1ccc(S(=O)(=O)c2nnn3c2nc(N2CCC(C)CC2)c2cc(Cl)ccc23)cc1C,inactive: -27.2%,–
CCN1C(=O)c2ccccc2S(=O)c2ccc(C(=O)N3CCN(c4ccccc4)CC3)cc21 (stereo unspecified),inactive: -16.4%,–
CCOC(=O)c1c(NC(=O)/C=C/c2ccc(OCC)c(OC)c2)sc2c1CCC2,inactive: -7.46%,–
Cc1cccc(NC(=O)CN2C(=O)c3ccccc3Sc3ncccc32)c1C,inactive: -7.97%,–
COc1ccccc1C(=O)OCc1cc(=O)n2nc(C3CCCCC3)sc2n1,inactive: -2.96%,–
COc1ccc(CCNC(=O)CSC2=Nc3ccccc3C3=NC(CCC(=O)NCc4ccccc4)C(=O)N23)cc1OC (stereo unspecified),inactive: -2.26%,–
Cc1noc2ncnc(N3CCCC(C(=O)NC(C)C)C3)c12 (stereo unspecified),inactive: -17.3%,–
Cc1cccc(CCNC(=O)C2CCN(c3ncnc4c3nc3n4CCCCC3)CC2)c1,inactive: 7.31%,–
CCNC(=O)Nc1ccc(Oc2ncnc(N)c2C=NOC)cc1Cl,inactive: -5%,–
COc1ccc(NC(=O)c2ccc(NC(=O)CCS(=O)(=O)c3cccs3)cc2)cc1OC,inactive: 5.82%,–
CCCCCn1c(CCCNC(=O)c2cccc(C)c2)nc2ccccc21,inactive: -7.94%,–
O=C(CCCCn1c(=O)c2ccccc2n(CC(=O)Nc2ccccc2)c1=O)NCc1ccccc1Cl,inactive: -1.68%,–
CCc1nnc2c3ccccc3nc(Nc3ccccc3OC)n12,inactive: -9.82%,–
Cc1cccc(N2CCN(S(=O)(=O)c3ccc4oc(=O)c5ncn(C)c5c4c3)CC2)c1C,inactive: -10.3%,–
Cc1c(C)n(Cc2ccccc2)c2ccc(C(=O)NCc3ccc(OC(C)C)cc3)cc12,inactive: -15.6%,–
CCN(CC)CCCNC(=O)C1CCN(S(C)(=O)=O)CC1,inactive: -11.6%,–
CCOC(=O)c1sc(NC(=O)C(C)Sc2nc(-c3ccccc3)cc(C(F)(F)F)n2)c(C(=O)OC)c1C (stereo unspecified),inactive: 4.9%,–
CCOc1ccc(C(=O)Nc2ccc(-c3nc4cc(C)ccc4o3)cc2)cc1,inactive: 31.5%,–
